Test results from paper PMC8027411.
Changes are numbered by the printed parent chain. These are yes or no findings as the source states them, for the method shown. Binding seen in cells or lysates may run through a third protein. Some results given as binding are weak or reduced against the parent protein; the word gives no strength. For part of these data: Sequences can lack the tags named with a protein. Each block holds one molecule with its values, some of them ahead of it.

Protein sequences, listed by entry. Tags and fused reporters are not part of them. Residues count along the entry.
UniProt P21802, residues 22-821: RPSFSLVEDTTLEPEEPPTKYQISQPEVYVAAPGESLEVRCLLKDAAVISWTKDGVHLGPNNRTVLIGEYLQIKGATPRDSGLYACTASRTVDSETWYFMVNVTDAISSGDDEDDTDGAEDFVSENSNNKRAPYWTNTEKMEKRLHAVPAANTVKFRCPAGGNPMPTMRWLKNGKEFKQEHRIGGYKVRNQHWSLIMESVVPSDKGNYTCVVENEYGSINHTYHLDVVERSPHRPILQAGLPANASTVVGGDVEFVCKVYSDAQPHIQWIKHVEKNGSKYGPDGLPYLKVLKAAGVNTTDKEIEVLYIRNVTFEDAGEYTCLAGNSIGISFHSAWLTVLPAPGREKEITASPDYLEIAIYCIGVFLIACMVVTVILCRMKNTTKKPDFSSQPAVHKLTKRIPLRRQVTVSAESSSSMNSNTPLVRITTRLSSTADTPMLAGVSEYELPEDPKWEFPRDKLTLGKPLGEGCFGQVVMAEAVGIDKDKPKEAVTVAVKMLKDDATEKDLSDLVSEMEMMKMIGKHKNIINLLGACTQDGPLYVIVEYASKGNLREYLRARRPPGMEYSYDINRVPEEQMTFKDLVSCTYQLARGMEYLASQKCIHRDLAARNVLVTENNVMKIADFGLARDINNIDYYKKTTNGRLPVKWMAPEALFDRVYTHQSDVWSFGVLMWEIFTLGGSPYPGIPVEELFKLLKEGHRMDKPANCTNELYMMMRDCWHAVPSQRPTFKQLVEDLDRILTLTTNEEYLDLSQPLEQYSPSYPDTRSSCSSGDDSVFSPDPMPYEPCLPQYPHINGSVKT
UniProt Q16620, residues 32-822: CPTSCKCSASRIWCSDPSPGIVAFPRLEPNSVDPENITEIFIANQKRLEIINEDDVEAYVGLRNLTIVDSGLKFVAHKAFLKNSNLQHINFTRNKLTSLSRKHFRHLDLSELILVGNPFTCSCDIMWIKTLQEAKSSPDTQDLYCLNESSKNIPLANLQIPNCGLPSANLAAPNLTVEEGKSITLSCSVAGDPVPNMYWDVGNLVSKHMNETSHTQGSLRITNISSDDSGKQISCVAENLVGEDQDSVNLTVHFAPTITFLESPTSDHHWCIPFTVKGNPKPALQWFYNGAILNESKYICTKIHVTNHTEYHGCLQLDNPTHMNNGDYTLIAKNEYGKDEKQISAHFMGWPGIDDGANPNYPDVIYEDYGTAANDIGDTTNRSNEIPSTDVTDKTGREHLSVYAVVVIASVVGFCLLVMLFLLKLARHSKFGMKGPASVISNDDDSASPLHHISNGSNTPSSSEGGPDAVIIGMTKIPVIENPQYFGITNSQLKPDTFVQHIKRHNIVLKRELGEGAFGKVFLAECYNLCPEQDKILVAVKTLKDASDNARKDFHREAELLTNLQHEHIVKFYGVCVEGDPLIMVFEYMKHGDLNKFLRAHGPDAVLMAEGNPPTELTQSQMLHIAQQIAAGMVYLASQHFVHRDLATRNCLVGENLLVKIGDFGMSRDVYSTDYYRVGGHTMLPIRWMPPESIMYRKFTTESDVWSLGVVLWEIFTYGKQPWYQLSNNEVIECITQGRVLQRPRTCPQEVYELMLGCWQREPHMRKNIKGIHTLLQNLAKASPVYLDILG
UniProt P16234, residues 24-1089: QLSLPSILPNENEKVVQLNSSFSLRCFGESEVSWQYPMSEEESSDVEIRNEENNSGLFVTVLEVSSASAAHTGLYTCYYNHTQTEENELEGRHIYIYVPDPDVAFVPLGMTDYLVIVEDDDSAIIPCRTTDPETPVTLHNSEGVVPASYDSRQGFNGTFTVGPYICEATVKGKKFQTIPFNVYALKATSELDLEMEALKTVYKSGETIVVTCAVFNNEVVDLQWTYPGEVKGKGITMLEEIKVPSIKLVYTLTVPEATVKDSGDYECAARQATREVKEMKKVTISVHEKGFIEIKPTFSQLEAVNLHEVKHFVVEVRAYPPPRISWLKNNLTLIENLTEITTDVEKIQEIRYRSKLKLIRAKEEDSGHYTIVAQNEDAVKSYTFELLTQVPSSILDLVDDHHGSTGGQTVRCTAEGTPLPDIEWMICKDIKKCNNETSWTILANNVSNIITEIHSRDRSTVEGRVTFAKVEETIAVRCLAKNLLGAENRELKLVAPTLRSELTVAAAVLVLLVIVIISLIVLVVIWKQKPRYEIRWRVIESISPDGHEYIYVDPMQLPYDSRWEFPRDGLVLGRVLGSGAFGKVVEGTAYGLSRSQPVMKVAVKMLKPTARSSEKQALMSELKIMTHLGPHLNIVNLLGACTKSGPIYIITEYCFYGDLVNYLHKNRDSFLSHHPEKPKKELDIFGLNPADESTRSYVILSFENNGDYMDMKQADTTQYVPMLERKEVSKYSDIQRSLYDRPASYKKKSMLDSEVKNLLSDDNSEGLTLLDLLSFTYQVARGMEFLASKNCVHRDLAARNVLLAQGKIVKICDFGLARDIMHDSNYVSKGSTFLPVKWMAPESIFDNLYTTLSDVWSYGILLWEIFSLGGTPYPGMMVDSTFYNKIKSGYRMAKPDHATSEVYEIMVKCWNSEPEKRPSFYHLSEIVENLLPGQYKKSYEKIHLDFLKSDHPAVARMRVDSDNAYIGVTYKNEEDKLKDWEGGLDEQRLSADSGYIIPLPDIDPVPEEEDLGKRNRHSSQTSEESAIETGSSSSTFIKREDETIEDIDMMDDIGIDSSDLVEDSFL
UniProt P51149: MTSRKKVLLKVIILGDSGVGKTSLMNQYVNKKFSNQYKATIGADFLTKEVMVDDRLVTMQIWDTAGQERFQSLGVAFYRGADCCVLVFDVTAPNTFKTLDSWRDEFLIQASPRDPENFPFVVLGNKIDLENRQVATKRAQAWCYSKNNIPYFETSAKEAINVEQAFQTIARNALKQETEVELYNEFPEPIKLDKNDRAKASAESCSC
UniProt P11362, residues 22-822: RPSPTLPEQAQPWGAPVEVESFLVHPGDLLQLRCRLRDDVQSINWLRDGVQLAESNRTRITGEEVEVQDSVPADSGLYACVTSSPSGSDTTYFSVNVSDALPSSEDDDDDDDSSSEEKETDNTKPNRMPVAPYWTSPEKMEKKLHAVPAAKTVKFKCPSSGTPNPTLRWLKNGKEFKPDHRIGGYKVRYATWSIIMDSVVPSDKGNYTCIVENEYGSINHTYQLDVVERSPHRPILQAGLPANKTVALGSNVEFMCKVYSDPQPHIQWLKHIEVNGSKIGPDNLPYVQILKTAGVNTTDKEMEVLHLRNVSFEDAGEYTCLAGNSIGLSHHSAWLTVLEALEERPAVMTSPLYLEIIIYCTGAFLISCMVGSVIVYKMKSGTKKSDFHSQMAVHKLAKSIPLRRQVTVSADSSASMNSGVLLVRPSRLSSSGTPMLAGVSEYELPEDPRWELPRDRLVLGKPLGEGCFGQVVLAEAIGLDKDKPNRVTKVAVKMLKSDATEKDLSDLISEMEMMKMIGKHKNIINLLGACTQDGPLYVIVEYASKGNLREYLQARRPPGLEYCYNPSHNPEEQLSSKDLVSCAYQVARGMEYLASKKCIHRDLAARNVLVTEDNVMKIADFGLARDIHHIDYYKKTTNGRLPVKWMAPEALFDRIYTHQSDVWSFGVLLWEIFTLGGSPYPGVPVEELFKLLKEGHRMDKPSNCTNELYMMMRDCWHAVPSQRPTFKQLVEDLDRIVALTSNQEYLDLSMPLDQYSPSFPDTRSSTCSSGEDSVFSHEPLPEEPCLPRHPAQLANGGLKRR
UniProt P08581, residues 25-1390: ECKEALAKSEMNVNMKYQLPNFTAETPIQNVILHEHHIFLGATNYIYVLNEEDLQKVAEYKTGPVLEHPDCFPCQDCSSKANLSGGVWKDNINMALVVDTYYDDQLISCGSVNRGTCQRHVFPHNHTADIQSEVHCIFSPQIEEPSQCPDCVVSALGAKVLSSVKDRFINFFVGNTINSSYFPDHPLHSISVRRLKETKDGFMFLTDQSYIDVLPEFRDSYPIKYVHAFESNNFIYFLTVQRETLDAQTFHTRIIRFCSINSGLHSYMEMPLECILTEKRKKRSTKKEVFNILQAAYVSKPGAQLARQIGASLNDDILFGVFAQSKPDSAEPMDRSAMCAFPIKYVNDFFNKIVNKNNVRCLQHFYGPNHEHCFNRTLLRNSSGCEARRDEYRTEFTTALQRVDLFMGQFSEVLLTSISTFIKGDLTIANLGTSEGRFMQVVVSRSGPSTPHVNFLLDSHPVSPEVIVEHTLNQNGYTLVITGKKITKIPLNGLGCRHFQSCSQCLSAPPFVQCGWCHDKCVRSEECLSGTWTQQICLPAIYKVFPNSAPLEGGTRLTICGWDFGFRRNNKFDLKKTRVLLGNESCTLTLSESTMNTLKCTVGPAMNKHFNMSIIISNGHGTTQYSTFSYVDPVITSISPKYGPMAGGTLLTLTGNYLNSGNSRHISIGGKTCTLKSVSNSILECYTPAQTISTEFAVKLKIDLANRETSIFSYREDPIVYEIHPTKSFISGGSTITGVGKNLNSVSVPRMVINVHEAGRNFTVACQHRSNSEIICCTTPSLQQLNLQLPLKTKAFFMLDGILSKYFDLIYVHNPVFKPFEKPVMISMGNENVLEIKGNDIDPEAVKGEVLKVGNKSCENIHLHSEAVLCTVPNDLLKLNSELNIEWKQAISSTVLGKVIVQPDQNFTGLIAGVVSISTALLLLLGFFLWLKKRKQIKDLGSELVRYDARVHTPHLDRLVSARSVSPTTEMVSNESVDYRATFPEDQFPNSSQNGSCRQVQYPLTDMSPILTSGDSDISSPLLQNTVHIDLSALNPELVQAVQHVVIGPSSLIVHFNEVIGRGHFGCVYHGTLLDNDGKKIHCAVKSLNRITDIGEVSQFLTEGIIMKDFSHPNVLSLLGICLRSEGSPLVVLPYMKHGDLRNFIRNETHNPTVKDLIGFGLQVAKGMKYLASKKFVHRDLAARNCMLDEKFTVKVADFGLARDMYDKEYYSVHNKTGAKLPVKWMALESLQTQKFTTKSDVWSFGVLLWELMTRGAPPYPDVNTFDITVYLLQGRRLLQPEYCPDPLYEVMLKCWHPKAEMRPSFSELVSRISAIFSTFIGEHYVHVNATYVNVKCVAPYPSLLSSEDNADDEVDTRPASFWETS

Columns and labels:
[1] = target: T1, FLOT1-Flag (human (cDNA from HEK-293T cells)) (UniProt O75955); assay: co-IP; tagged proteins co-expressed in transfected cells (HEK-293T in Fig. 4c, d), RIPA lysates, anti-Flag or anti-HA beads overnight at 4 °C, five washes; western blot
T1 sequence: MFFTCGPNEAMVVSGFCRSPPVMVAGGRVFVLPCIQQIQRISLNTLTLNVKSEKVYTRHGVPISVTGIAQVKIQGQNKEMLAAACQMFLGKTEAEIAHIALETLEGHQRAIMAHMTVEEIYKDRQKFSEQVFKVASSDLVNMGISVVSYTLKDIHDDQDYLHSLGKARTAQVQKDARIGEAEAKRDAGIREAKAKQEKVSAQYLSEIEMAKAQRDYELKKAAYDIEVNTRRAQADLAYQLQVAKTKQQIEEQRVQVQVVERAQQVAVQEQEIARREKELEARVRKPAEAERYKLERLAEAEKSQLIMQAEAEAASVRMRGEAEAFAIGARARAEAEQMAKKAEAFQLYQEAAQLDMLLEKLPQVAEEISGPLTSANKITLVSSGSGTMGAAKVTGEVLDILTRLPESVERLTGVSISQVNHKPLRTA

[2] = target: T2, FLOT2-Flag (human (cDNA from HEK-293T cells)) (UniProt Q14254); assay: as above
T2 sequence: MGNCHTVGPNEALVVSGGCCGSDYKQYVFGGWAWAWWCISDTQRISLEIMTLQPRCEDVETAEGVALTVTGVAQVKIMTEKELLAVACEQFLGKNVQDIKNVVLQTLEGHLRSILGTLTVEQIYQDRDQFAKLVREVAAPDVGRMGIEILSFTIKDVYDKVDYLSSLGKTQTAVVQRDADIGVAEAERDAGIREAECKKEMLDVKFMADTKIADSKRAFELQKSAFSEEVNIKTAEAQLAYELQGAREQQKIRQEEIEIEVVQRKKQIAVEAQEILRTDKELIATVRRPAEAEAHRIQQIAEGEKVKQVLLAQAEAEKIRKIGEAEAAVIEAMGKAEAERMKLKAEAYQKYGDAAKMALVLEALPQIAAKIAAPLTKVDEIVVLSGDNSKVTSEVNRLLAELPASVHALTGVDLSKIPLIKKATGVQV

[3] = target: T3, TBC1D2B (endogenous) (human (endogenous in NCI-H1975)) (UniProt Q9UPU7); assay: co-IP; endogenous proteins, NCI-H1975 cell lysates in RIPA buffer (50 mM Tris-HCl pH 7.5, 150 mM NaCl, 1 mM EDTA, 1% NP40); EGFR, RAB31, FLOT1, FLOT2 or TBC1D2B antibody or control IgG with protein A or A/G agarose, overnight at 4 °C; western blot
T3 sequence: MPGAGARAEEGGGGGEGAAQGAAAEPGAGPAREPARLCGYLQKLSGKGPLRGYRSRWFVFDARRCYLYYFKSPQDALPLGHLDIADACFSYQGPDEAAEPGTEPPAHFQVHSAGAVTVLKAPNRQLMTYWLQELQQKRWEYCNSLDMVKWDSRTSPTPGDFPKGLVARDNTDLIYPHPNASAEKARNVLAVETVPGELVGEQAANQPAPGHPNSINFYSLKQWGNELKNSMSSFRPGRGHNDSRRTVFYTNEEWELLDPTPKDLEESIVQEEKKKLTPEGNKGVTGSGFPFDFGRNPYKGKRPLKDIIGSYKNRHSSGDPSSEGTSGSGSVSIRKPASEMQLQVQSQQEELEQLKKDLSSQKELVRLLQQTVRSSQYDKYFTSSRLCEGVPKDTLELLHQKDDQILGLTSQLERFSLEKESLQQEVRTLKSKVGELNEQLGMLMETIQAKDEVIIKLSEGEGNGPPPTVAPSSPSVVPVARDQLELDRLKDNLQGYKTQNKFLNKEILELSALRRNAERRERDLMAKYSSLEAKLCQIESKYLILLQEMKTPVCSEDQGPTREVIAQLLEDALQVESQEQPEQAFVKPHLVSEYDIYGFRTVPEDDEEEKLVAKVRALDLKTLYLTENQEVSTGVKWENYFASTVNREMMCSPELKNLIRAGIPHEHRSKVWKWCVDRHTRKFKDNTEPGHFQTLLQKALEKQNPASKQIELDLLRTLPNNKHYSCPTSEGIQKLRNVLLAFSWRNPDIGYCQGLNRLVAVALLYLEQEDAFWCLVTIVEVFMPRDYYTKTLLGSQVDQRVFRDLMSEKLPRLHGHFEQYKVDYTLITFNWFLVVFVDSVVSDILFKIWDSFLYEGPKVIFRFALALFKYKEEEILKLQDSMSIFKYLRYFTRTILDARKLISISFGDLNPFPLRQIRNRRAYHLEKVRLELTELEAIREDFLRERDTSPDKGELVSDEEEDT

[4] = target: T4, Flotillin1 (FLOT1), endogenous (human (endogenous in NCI-H1975)) (UniProt O75955); assay: as above
T4 sequence: T1 sequence

[5] = target: T5, Flotillin2 (FLOT2), endogenous (human (endogenous in NCI-H1975)) (UniProt Q14254); assay: as above
T5 sequence: T2 sequence

[6] = target: T6, Flag-RAB31^Q65L (constitutively active form of RAB31) (human (cDNA from HEK-293T cells)) (UniProt Q13636); assay: co-IP; tagged proteins co-expressed in transfected cells (HEK-293T in Fig. 4c, d), RIPA lysates, anti-Flag or anti-HA beads overnight at 4 °C, five washes; western blot
T6 sequence: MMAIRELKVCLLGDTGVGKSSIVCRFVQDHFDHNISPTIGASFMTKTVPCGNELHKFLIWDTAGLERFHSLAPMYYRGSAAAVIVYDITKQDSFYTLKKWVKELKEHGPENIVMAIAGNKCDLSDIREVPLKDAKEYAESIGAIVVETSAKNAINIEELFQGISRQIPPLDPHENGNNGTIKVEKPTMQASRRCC

[7] = target: epidermal growth factor receptor (EGFR), endogenous in NCI-H1975 (EGFR^M2) (human (endogenous in NCI-H1975)) (UniProt P00533); assay: co-IP; endogenous proteins, NCI-H1975 cell lysates in RIPA buffer (50 mM Tris-HCl pH 7.5, 150 mM NaCl, 1 mM EDTA, 1% NP40); EGFR, RAB31, FLOT1, FLOT2 or TBC1D2B antibody or control IgG with protein A or A/G agarose, overnight at 4 °C; western blot

binding [1]: binds
binding [2]: binds
Molecule: FGFR2-HA (from UniProt P21802 22-821) (receptor)

binding [1]: binds
binding [2]: binds
Molecule: NTRK2-HA (from UniProt Q16620 32-822) (receptor)

binding [6]: no binding
B1: FLOT1-flotillin-HA (domain or fragment, UniProt O75955 190-427)
chain: REAKAKQEKVSAQYLSEIEMAKAQRDYELKKAAYDIEVNTRRAQADLAYQLQVAKTKQQIEEQRVQVQVVERAQQVAVQEQEIARREKELEARVRKPAEAERYKLERLAEAEKSQLIMQAEAEAASVRMRGEAEAFAIGARARAEAEQMAKKAEAFQLYQEAAQLDMLLEKLPQVAEEISGPLTSANKITLVSSGSGTMGAAKVTGEVLDILTRLPESVERLTGVSISQVNHKPLRTA

binding [6]: binds
B2: FLOT2-SPFH-HA (domain or fragment, UniProt Q14254 1-192)
chain: MGNCHTVGPNEALVVSGGCCGSDYKQYVFGGWAWAWWCISDTQRISLEIMTLQPRCEDVETAEGVALTVTGVAQVKIMTEKELLAVACEQFLGKNVQDIKNVVLQTLEGHLRSILGTLTVEQIYQDRDQFAKLVREVAAPDVGRMGIEILSFTIKDVYDKVDYLSSLGKTQTAVVQRDADIGVAEAERDAGI

binding [6]: binds
B7: FLOT2-HA (protein, UniProt Q14254 1-428)
chain: T2 sequence

More lines, now with the values behind:

Molecule: PDGFR-α-HA (from UniProt P16234 24-1089) (receptor)
binding [1]: binds
binding [2]: binds

Molecule: RAB7 (endogenous) (from UniProt P51149 1-207)
binding [3]: binds

Molecule: FGFR1-HA (from UniProt P11362 22-822) (receptor)
binding [1]: binds
binding [2]: binds

Molecule: MET-HA (from UniProt P08581 25-1390) (receptor)
binding [1]: binds
binding [2]: binds

Molecule: epidermal growth factor receptor (EGFR), endogenous in NCI-H1975 (EGFR^M2) (from UniProt P00533 25-1210)
binding [4]: binds
binding [5]: binds

Molecule: PDGFR-β-HA (from UniProt P09619 33-1106) (receptor)
binding [1]: binds
binding [2]: binds

Molecule: HER2-HA (from UniProt P04626 23-1255) (receptor)
binding [1]: binds
binding [2]: binds

B3: FLOT1-SPFH-HA (domain or fragment, UniProt O75955 1-189)
chain: MFFTCGPNEAMVVSGFCRSPPVMVAGGRVFVLPCIQQIQRISLNTLTLNVKSEKVYTRHGVPISVTGIAQVKIQGQNKEMLAAACQMFLGKTEAEIAHIALETLEGHQRAIMAHMTVEEIYKDRQKFSEQVFKVASSDLVNMGISVVSYTLKDIHDDQDYLHSLGKARTAQVQKDARIGEAEAKRDAGI
binding [6]: binds

B4: FLOT2-flotillin-HA (domain or fragment, UniProt Q14254 192-428)
chain: IREAECKKEMLDVKFMADTKIADSKRAFELQKSAFSEEVNIKTAEAQLAYELQGAREQQKIRQEEIEIEVVQRKKQIAVEAQEILRTDKELIATVRRPAEAEAHRIQQIAEGEKVKQVLLAQAEAEKIRKIGEAEAAVIEAMGKAEAERMKLKAEAYQKYGDAAKMALVLEALPQIAAKIAAPLTKVDEIVVLSGDNSKVTSEVNRLLAELPASVHALTGVDLSKIPLIKKATGVQV
binding [6]: no binding

B5: FLOT1-HA (protein, UniProt O75955 1-427)
chain: T1 sequence
binding [6]: binds

B6: RAB31 (endogenous) (protein, UniProt Q13636 1-195)
chain: T6 sequence with L65Q
binding [3]: binds
binding [4]: binds
binding [5]: binds
binding [7]: binds
